This note sets out measurements from ChEMBL document CHEMBL1157539, “Thousands of chemical starting points for antimalarial lead identification” (Nature, 2010).

Over roughly 13,000 compounds, “IFI” has its median near 4; the highest 2% begin near 17. The list shows a part of the results.

This experiment is described as follows: GSK_TCMDC: Inhibition Frequency Index (IFI). The number of non-kinase HTS assays where a compound showed > 50 % inhibition, expressed as a percentage of the number of such assays in which the compound was tested (-0 is zero). The experiment is classed as functional.
For the compound `CS(=O)(=O)c1ccc(CNCc2ccc(-c3ccc(-c4nc5cc(C(F)(F)F)ccc5[nH]4)s3)cc2)cc1`, the IFI worked out at 9.8%.
Take `COc1ccc2c(NN=Cc3cccc(C)n3)ccnc2c1`: the IFI was -0%.
To `O=C(NC1CCCCC1)C(c1cccs1)N(CCc1ccccc1)C(=O)c1ccco1` (configuration not stated) belongs 2.8%; to `NC1=NC2(CCCCC2)N(OCCCCCCC2CCCCC2)C(N)=N1`, 27.6%; to `CC(C)(C)c1ccc(-c2ccccc2CNC(=O)c2cccc(O)c2)cc1`, 1.55%.
In the case of `Cc1c2c(nn1-c1ccccc1)C(c1ccccc1)N(c1ccccc1)C2=O` (configuration not stated), the IFI is 1.53%.
The compound `Cn1nccc1C(=O)NCCNCc1ccc(-c2ccc(-c3nc4cc(C(F)(F)F)ccc4[nH]3)s2)cc1` displayed an IFI of 9.9%.
To `O=C(Nc1ccc(N2CCN(C(=O)/C=C/c3ccccc3)CC2)c(Cl)c1)c1ccc([N+](=O)[O-])o1` belongs 13.9%; to `COc1ccccc1/C=C/C(=O)NC1CCC(CCN2CCc3ccc(-c4cc(C)no4)cc3CC2)CC1` (configuration not stated), 3.88%.
`NC1CCN(c2nc(NCCCc3ccc(O)cc3)nc(NCc3cccc4ccccc34)n2)CC1`: the IFI came to 15.6%.
The same measure for `COc1ccc(NC2=C(c3ccccc3)C(=O)c3ccccc32)cn1`: -0%.
`O=C(NC1CCN(Cc2ccccc2)CC1)c1ccc(CNC2CCN(Cc3ccccc3)CC2)cc1` gave an IFI of -0%.
`Cc1cc(=NN=Cc2ccccn2)c2cc(C(F)(F)F)ccc2[nH]1` came in with an IFI of 0%.
The compound `Cc1cc(C(=O)Nc2ccc3c(c2)CCN3C2CCN(Cc3ccc4nsnc4c3)C2)no1` (configuration not stated) showed an IFI of -0%.
`CN1CCN(c2ccc(Nc3nc(N)c4ccn(C5CCC5)c4n3)cc2)CC1` showed an IFI of 8.11%.
As for `Cc1ccc2c(=NN=Cc3cccc(F)c3)cc(C)[nH]c2c1`, the IFI is 5.15%.
On to `N#Cc1ccc(-c2ccc(C(=O)NCCCCN3CCC(n4cnc5ccccc54)CC3)cc2)cc1`, for which the IFI turned out to be 2.7%.
Consider `COc1ccc(-c2ccc(NC(=O)c3cccc(C#N)c3)cc2)cc1CN1CCCC(C(N)=O)C1` (configuration not stated), for which the IFI worked out at 1.98%.
With `CC(C)c1ccc(CN2CCC(NC(=O)c3ccc(-c4cccc(F)c4)s3)CC2)cc1`, the IFI was 17.2%.
The compound `CC(Cc1ccc(CNC(=O)NCc2ccc(CC(C)NCCc3cccc(Cl)c3)cc2)cc1)NCCc1cccc(Cl)c1` (configuration not stated) registered an IFI of 12.9%.
Compound `C=C[C@]1(C)C[C@@H](OC(=O)CSC2CN3CCC2C3)[C@@]2(C)C3C(=O)CC[C@@]3(CC[C@H]2C)[C@@H](C)[C@@H]1O` (some centres not stated) returned an IFI of 2.04%.
In turn, `Cc1ccc(Nc2ccnc(Nc3ccc4c(c3)CS(=O)(=O)C4)n2)cc1O` yielded an IFI of 8.84%.
The same measure for `CN(C)c1nc2cc(-n3cnc4cc(-c5ccc(Cl)cc5)sc4c3=O)ccc2n1CCCN1CCCC1`: 8.4%.
To `COc1ccc(C2C(C(=O)OC3CCCC3)=C(C)NC3=C2C(=O)CCC3)cc1Br` (configuration not stated) belongs 2.96%; to `N=C(N)Nc1nc(-c2cccc(NC(=O)Cc3ccccc3)c2)cs1`, -0%.
As to `O=C(Cc1c[nH]cn1)Nc1ccc(-c2ccc(-c3nc4ccccc4[nH]3)s2)cc1`, the IFI was determined as 2.8%.
Consider `CCc1ccc(NC(=O)c2cccc(CN3CCCN(Cc4ccc(OC)cc4)CC3)c2)cc1`, for which the IFI was 8.51%.
Take `CS(=O)(=O)CCNCc1nc(-c2ccc3c(=O)[nH]cnc3c2)cs1`: the IFI turned out to be 22.6%.
In turn, `Cc1cc(NCCc2ccc(O)cc2)nc(NCC(c2ccccc2)c2ccccc2)n1` had an IFI of 15%.
Compound `CCN1CCN(c2cc(C)c3cc(NC(=O)c4cccc([N+](=O)[O-])c4)ccc3n2)CC1` yielded an IFI of 2.7%.
As for `CC(Cc1ccc(OCC(=O)NCC2CCN(CCc3cccc(Cl)c3)CC2)cc1)NCCc1cccc(Cl)c1` (configuration not stated), the IFI stood at 9.49%.
Turning to `CN(C)c1ccc(CN2CCCCC(NC(=O)c3cc(-c4ccccc4F)cs3)C2)cc1` (configuration not stated), the IFI turned out to be 3.64%.
In turn, `O=C(Nc1ccc(Cn2ncc(N3CCCNCC3)c(Cl)c2=O)cc1)Nc1cccc(Oc2ccccc2)c1` returned an IFI of 7.46%.
The same measure for `Cc1ncccc1C(=O)Nc1cccc(-c2cccc(-c3nc4cccc(C)c4[nH]3)c2)c1`: 1.9%.
The same measure for `CCOc1cc(Cl)c(C(C)NC(=O)c2ccccc2)cc1OCC` (configuration not stated): -0%; for `CN1CCCN(c2ccnc3cc4c(cc23)N(C(=O)c2ccccc2Cl)CC4)CC1`: -0%.
Regarding `Cc1[nH]c(C)c(-c2ccc(-c3ccccc3F)nc2)c(=O)c1Cl`, the IFI was -0%.
The compound `COC(=O)CCCCOc1c(OC)cc(Cc2cnc(N)nc2N)cc1OC` came in with an IFI of 2.05%.
`CCCC(=O)c1cnc2c(OCCCc3c[nH]cn3)cccc2c1Nc1c(C)cccc1C` had an IFI of 13.4%.
For the compound `CNC(=O)c1cnc(Nc2ccc(N3CCN(C)CC3)c(C)c2)nc1NC`, the IFI turned out to be 0%.
For the compound `CC1(C)N=C(N)N=C(N)N1c1ccccc1`, the IFI came to 1.46%.
`COc1ccccc1CCNc1nc(C)cc(N[C@@H](Cc2ccccc2)C(=O)NCCCOC(C)C)n1` showed an IFI of -0%.
`Cc1cccc2nc(-c3ccc(-c4ccc(CNCCc5ccncc5)cc4)cc3)[nH]c12` registered an IFI of 10%.
`O=C(/C=C/c1ccc(Cl)c(Cl)c1)NCCCCCCN1CCCN(C(=O)Nc2cccc(Cl)c2)CC1` yielded an IFI of 7.44%.
The same measure for `O=C1CCCN1CCCNCc1cccc(-c2cccc(-c3nc4cc(F)ccc4[nH]3)c2)c1`: 4.85%; for `FC(F)(F)c1cccc(CNCC2CCN(CC3CCCCC3)CC2)c1`: 1.38%.
Turning to `CN(C)CCCn1c(N)c(-c2nc3ccccc3[nH]2)c2nc(C#N)c(C#N)nc21`, the IFI came to 5.17%.
In the case of `Cc1ccnc(NC(=O)c2cc(-c3cccc([N+](=O)[O-])c3)nc3onc(C)c23)c1`, the IFI was determined as 0%.
Take `COc1ccc2c(NN=Cc3cccc(Cl)c3)ccnc2c1`: the IFI is 2.94%.
To `COc1ccc(-c2cccc(NC(=O)c3cccs3)c2)cc1CN1CCCN(C)CC1` belongs 5.83%; to `CC1CNC(c2cccc(NC(=O)Nc3cccc(C4=NC(C)CN4)c3)c2)=N1` (configuration not stated), 1.47%; to `Cc1ccc(Oc2cnn(C)c(=O)c2Nc2cccc(C(=O)NCCc3ccccn3)c2)c(C)c1`, 4.88%.
`Cc1nnc2c(NC(=O)/C=C/c3ccc(OC(F)(F)F)cc3)cc3cc(Cl)ccc3n12` showed an IFI of -0%.
The compound `N=C(N)Nc1nc(-c2ccc(NC(=N)N3CCC[C@H]3CN3CCCC3)cc2)cs1` returned an IFI of 2.17%.
In the case of `O=c1[nH]ccc2nc(N[C@@H]3CCCNC3)nc(Nc3ccc(S(=O)(=O)N4CCOCC4)cc3)c12`, the IFI was 0%.
The compound `CC(C)(CN)c1nc(-c2ccc(Cl)c(O)c2)c(-c2ccncc2)[nH]1` showed an IFI of 2.76%.
For `COc1ccc(Nc2nccc(-c3cccc(NC(=O)c4cc5cc(F)ccc5[nH]4)c3)n2)cc1`, the IFI came to 6.15%.
`CCn1c(Sc2ccc([N+](=O)[O-])c(C#N)c2)nnc1-c1cccc(Cl)c1`: the IFI came out at 3.47%.
Compound `CN1CCN(CC(O)CNC(=O)Nc2ccc(Cl)cc2)CC1` (configuration not stated) gave an IFI of 0%.
Compound `CC(=O)N/N=C/[C@H](CCc1ccccc1)NC(=O)[C@H](CC(C)C)NC(=O)c1ccc(OCCN2CCOCC2)cc1` displayed an IFI of 4.55%.
Turning to `N#Cc1ccc2c(c1)CCN(CCC1CCC(NC(=O)c3cc4ccc(Cl)cc4[nH]3)CC1)C2` (configuration not stated), the IFI is 1.52%.
`CC(C)N(CC(=O)c1ccc(O)c(C(=O)O)c1)Cc1ccccc1` came in with an IFI of -0%.
`Cc1c(Oc2ccc(-n3ccnc3)cc2)ncnc1N1CCC2(CC1)CNCc1ccccc12` gave an IFI of 15.6%.
In turn, `CC(=O)c1ccc(S(=O)(=O)N2CCC(C(=O)Nc3ccccc3N3CCCC3)CC2)cc1` showed an IFI of 4.04%.
In turn, `O=C(N[C@@H](Cc1ccccc1)C(=O)NC1CCCCC1)c1ccc(O)c(-c2ccc(Cl)c(Cl)c2)c1` returned an IFI of 2.96%.
Take `CN1CCN(CCNc2c3ccccc3nc3c2ccc2ccccc23)CC1`: the IFI came out at 6.99%.
Consider `CC(C)CNCc1cccc(-c2ccc(CN(CCCN3CCN(C)CC3)C(=O)/C=C/c3ccccc3)cc2)c1`, for which the IFI came to 5.15%.
Turning to `CCCCN(CCCC)Cc1cc(N(C)c2ccc([N+](=O)[O-])cn2)ccc1O`, the IFI was found to be 3.17%.
In turn, `Cc1nc(N2CCC(C)CC2)c2c3c(sc2n1)CCCC3` returned an IFI of 0.68%.
Take `COc1cc(CNCCCNc2nc3ncccc3[nH]2)c2[nH]cc(Br)c2c1`: the IFI came out at 5.26%.
With `CC(C)C(=O)NC(c1cccs1)c1cc(Cl)c2cccnc2c1O` (configuration not stated), the IFI was determined as 3.55%.
With `COc1ccc(NC(=O)c2ccc(-c3nc(-c4cccc(C(F)(F)F)c4)cs3)cc2)cc1N1CCN(C)CC1`, the IFI turned out to be 9.01%.
To `O=C(Cc1c[nH]cn1)Nc1cccc(-c2ccc(-c3nc4cc(F)ccc4[nH]3)s2)c1` belongs 3.74%; to `CC1CCCCN1Cc1cccc(-c2c[nH]c3nc(NC4CCCC4)ncc23)c1` (configuration not stated), 1.72%; to `Cc1[nH]c(C)c(C(F)(F)F)c(=O)c1-c1ccc(Oc2ccc(OC(F)(F)F)cc2)cc1`, 0%.
In turn, `Cc1ccc(NC(=O)c2ccc(N3CCC(c4ccccc4C)CC3)nc2)cc1` gave an IFI of 4.35%.
`COc1cc2c(cc1NS(=O)(=O)c1ccc(OCc3ccc(Br)cc3)cc1)CCN(C1CCC1)CC2` yielded an IFI of 11.3%.
Turning to `C(=N\Nc1nccc2sc(-c3ccccc3)cc12)/c1cccnc1`, the IFI turned out to be 2.92%.
Take `O=[N+]([O-])c1ccc(CNCCCCCCNCc2ccc([N+](=O)[O-])c3ccccc23)c2ccccc12`: the IFI stood at 10.3%.
The compound `Cc1cc(C(=O)Nc2ccc(-c3nc4ccccc4[nH]3)cc2)ccc1[N+](=O)[O-]` yielded an IFI of 2.11%.
`CC(C)N(CCOc1ccc2c(c1)N(C(=O)Nc1cc(Br)cc(C(F)(F)F)c1)CC2)C(C)C` displayed an IFI of 3.6%.
`COc1cc2nccc(Nc3ccc4c(cnn4Cc4cccc(F)c4)c3)c2cc1OC` showed an IFI of 5.83%.
`CN(C)CCCOc1ccc(CN2CC[C@H](NC(=O)c3ccc(Cl)c(Cl)c3)C2)cc1Cl` yielded an IFI of 4.17%.
For `CC(C)c1ncc(-c2ccncc2)c(C2CCC(CNC(=O)c3ccncc3)CC2)n1` (configuration not stated), the IFI is -0%.
Consider `COc1ccc(-c2ccc(NC(=O)c3cccc(C#N)c3)cc2)cc1CN1CCC(O)CC1`, for which the IFI came out at 0.97%.
The same measure for `CCCCCc1cc(OC(C)=O)c2c(c1)OC(C)(C)C=C2C1=CCN(Cc2ccccc2)CC1`: 5.76%.
In the case of `Fc1ccc(C=NNc2nc3ccccc3[nH]2)cc1`, the IFI was determined as 1.42%.
Turning to `COc1cc(N)c(Cl)cc1C(=O)NC1CCC(NCC2CCCCC2)CC1` (configuration not stated), the IFI was 0.96%.
To `CC(C)CCN(Cc1cncn1Cc1ccccc1F)C(=O)c1cncc(-c2ccccc2)c1` belongs 3.7%; to `N[C@@H](CCNCc1ccc(-c2cccnc2)cc1)Cc1ccc(F)c(F)c1`, 7.69%.
Consider `O=C(Nc1cccc(CN2CCN(C(=O)c3ccccc3)CC2)c1)c1cccs1`, for which the IFI worked out at 5.38%.
The same measure for `Cc1cccc2nc(-c3cccc(-c4cccc(CN5CCC(CO)CC5)c4)c3)[nH]c12`: 2%.
